# Reference: the supplement of paper PMC9588766
# Counter-ions that a name gives are not always drawn. Over roughly 1,900 compounds, “cell viability of compound + 1 nM pemigatinib relative to pemigatinib-only (DMSO) wells” has its median near 0.95; the lowest 2% begin near 0.22. The list shows a part of the results.
# Tested on: PDC-DUC18828
# Test: cell viability of compound + 1 nM pemigatinib relative to pemigatinib-only (DMSO) wells (fraction); PDC-DUC18828 is a patient-derived cholangiocarcinoma cell line; higher = less growth inhibition
# Settings: first compound 1 µM; pemigatinib concentration 1 nM; 72 h
# Experimental: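 Selleck Bioactive library screen in the patient-derived FGFR2 fusion-positive ICC cell line PDC-DUC18828 (500 cells/well). Each compound was tested at 1 uM with 1 nM pemigatinib, in triplicate, for 72 h. Viability was read by CellTiter-Glo and normalised to plate DMSO controls. Value is the paper's averaged normalised viability.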
row,Structure (SMILES),cell viability
1,CCCCC(C=O)NC(=O)C(CC(C)C)NC(=O)C(CC(C)C)NC(C)=O (stereo not given) + CCN1C(=O)N(c2c(F)c(OC)cc(OC)c2F)Cc2cnc3[nH]c(CN4CCOCC4)cc3c21 [pemigatinib],0.544
2,Cc1cc(C)cc(NC(=O)Cc2ccc(OC(C)(C)C(=O)O)cc2)c1 [Efaproxiral Sodium] + CCN1C(=O)N(c2c(F)c(OC)cc(OC)c2F)Cc2cnc3[nH]c(CN4CCOCC4)cc3c21 [pemigatinib],0.974
3,Cc1ccc(O)c([C@H](CCN(C(C)C)C(C)C)c2ccccc2)c1 [Tolterodine tartrate] + CCN1C(=O)N(c2c(F)c(OC)cc(OC)c2F)Cc2cnc3[nH]c(CN4CCOCC4)cc3c21 [pemigatinib],0.911
4,CCCCOc1ccc(CC(=O)NO)cc1 [Bufexamac] + CCN1C(=O)N(c2c(F)c(OC)cc(OC)c2F)Cc2cnc3[nH]c(CN4CCOCC4)cc3c21 [pemigatinib],0.829
5,NC(=O)NO [Hydroxyurea] + CCN1C(=O)N(c2c(F)c(OC)cc(OC)c2F)Cc2cnc3[nH]c(CN4CCOCC4)cc3c21 [pemigatinib],1.04
6,Clc1ccccc1C(c1ccccc1)(c1ccccc1)n1ccnc1 [Clotrimazole] + CCN1C(=O)N(c2c(F)c(OC)cc(OC)c2F)Cc2cnc3[nH]c(CN4CCOCC4)cc3c21 [pemigatinib],1.01
7,Clc1ccc(COC(Cn2ccnc2)c2ccc(Cl)cc2Cl)cc1 (stereo not given) [Econazole nitrate] + CCN1C(=O)N(c2c(F)c(OC)cc(OC)c2F)Cc2cnc3[nH]c(CN4CCOCC4)cc3c21 [pemigatinib],0.879
8,CO[C@H]1C(=O)[C@]2(C)[C@@H](OC)C[C@H]3OC[C@@]3(OC(C)=O)[C@H]2[C@H](OC(=O)c2ccccc2)[C@]2(O)C[C@H](OC(=O)[C@H](O)[C@@H](NC(=O)OC(C)(C)C)c3ccccc3)C(C)=C1C2(C)C [Cabazitaxel] + CCN1C(=O)N(c2c(F)c(OC)cc(OC)c2F)Cc2cnc3[nH]c(CN4CCOCC4)cc3c21 [pemigatinib],0.267
9,O=S(=O)(O)CCSSCCS(=O)(=O)O [Dimesna] + CCN1C(=O)N(c2c(F)c(OC)cc(OC)c2F)Cc2cnc3[nH]c(CN4CCOCC4)cc3c21 [pemigatinib],0.984
10,CC(C)(C)c1ccc(S(=O)(=O)NCc2ccc(C(=O)Nc3cccnc3)cc2)cc1 + CCN1C(=O)N(c2c(F)c(OC)cc(OC)c2F)Cc2cnc3[nH]c(CN4CCOCC4)cc3c21 [pemigatinib],0.527
11,Cn1cnc(N)c2ncnc1-2 [3-Methyladenine] + CCN1C(=O)N(c2c(F)c(OC)cc(OC)c2F)Cc2cnc3[nH]c(CN4CCOCC4)cc3c21 [pemigatinib],0.963
12,COc1cc2c(cc1OC)CN(CCc1ccc(NC(=O)c3cccc4c(=O)c5cccc(OC)c5[nH]c34)cc1)CC2 + CCN1C(=O)N(c2c(F)c(OC)cc(OC)c2F)Cc2cnc3[nH]c(CN4CCOCC4)cc3c21 [pemigatinib],0.952
13,CCN(CCCc1ccccc1)CCCc1ccccc1 [Alverine Citrate] + CCN1C(=O)N(c2c(F)c(OC)cc(OC)c2F)Cc2cnc3[nH]c(CN4CCOCC4)cc3c21 [pemigatinib],0.96
14,Cc1cc(CS(=O)(=O)c2ccccc2)cc(OCc2ccc(CN3CCC[C@@H]3CO)cc2)c1 + CCN1C(=O)N(c2c(F)c(OC)cc(OC)c2F)Cc2cnc3[nH]c(CN4CCOCC4)cc3c21 [pemigatinib],0.973
15,CCc1cc(/C(C)=N/OCc2ccc(C3CCCCC3)c(C(F)(F)F)c2)ccc1CN1CC(C(=O)O)C1 [BAF312 (Siponimod)] + CCN1C(=O)N(c2c(F)c(OC)cc(OC)c2F)Cc2cnc3[nH]c(CN4CCOCC4)cc3c21 [pemigatinib],0.993
16,C=CCN1CCCC1CNC(=O)c1cc2nn[nH]c2cc1OC (stereo not given) [Alizapride HCl] + CCN1C(=O)N(c2c(F)c(OC)cc(OC)c2F)Cc2cnc3[nH]c(CN4CCOCC4)cc3c21 [pemigatinib],0.954
17,CC(C)c1onc(-c2c(Cl)cccc2Cl)c1COc1ccc(/C=C/c2cccc(C(=O)O)c2)c(Cl)c1 + CCN1C(=O)N(c2c(F)c(OC)cc(OC)c2F)Cc2cnc3[nH]c(CN4CCOCC4)cc3c21 [pemigatinib],0.884
18,NC(=O)CCCSc1nc(N)nc(-c2c(Cl)cc3c4c(cccc24)COC3)n1 + CCN1C(=O)N(c2c(F)c(OC)cc(OC)c2F)Cc2cnc3[nH]c(CN4CCOCC4)cc3c21 [pemigatinib],0.317
19,Nc1nc(Nc2ccc(S(N)(=O)=O)cc2)nn1C(=O)c1c(F)cccc1F + CCN1C(=O)N(c2c(F)c(OC)cc(OC)c2F)Cc2cnc3[nH]c(CN4CCOCC4)cc3c21 [pemigatinib],0.899
20,N#CC(=C(/N)Sc1ccccc1N)/C(C#N)=C(\N)Sc1ccccc1N + CCN1C(=O)N(c2c(F)c(OC)cc(OC)c2F)Cc2cnc3[nH]c(CN4CCOCC4)cc3c21 [pemigatinib],0.959
21,Cc1[nH]c(/C=C2\C(=O)Nc3ccc(S(=O)(=O)Cc4c(Cl)cccc4Cl)cc32)c(C)c1C(=O)N1CCC[C@@H]1CN1CCCC1 + CCN1C(=O)N(c2c(F)c(OC)cc(OC)c2F)Cc2cnc3[nH]c(CN4CCOCC4)cc3c21 [pemigatinib],0.955
22,COc1ccc(CNCc2cccc3ccccc23)cc1 + CCN1C(=O)N(c2c(F)c(OC)cc(OC)c2F)Cc2cnc3[nH]c(CN4CCOCC4)cc3c21 [pemigatinib],0.904
23,NC(=O)[C@@H](CCC(F)(F)F)N(Cc1ccc(-c2ncon2)cc1F)S(=O)(=O)c1ccc(Cl)cc1 + CCN1C(=O)N(c2c(F)c(OC)cc(OC)c2F)Cc2cnc3[nH]c(CN4CCOCC4)cc3c21 [pemigatinib],0.89
24,CC(C)(Oc1ccc(C2CC2(Cl)Cl)cc1)C(=O)O (stereo not given) [Ciprofibrate] + CCN1C(=O)N(c2c(F)c(OC)cc(OC)c2F)Cc2cnc3[nH]c(CN4CCOCC4)cc3c21 [pemigatinib],0.982
25,NC(=O)c1cccnc1 [Nicotinamide (Vitamin B3)] + CCN1C(=O)N(c2c(F)c(OC)cc(OC)c2F)Cc2cnc3[nH]c(CN4CCOCC4)cc3c21 [pemigatinib],0.994
